The data set has as its system human red blood cells. Conditions: red cells of human, 1 h.

Residues, ends and D or L forms follow the SMILES beside them. No end group written: not given here.

With `CC[C@H](C)[C@H](NC(=O)CNC(=O)[C@@H](N)CCSC)C(=O)NCC(=O)N[C@@H](CCCCN)C(=O)N[C@@H](Cc1ccccc1)C(=O)N[C@@H](CCC(N)=O)C(=O)N[C@@H](CCCCN)C(=O)N[C@@H](CCSC)C(=O)N[C@@H](CCCNC(=N)N)C(=O)N[C@@H](Cc1ccccc1)C(=O)N[C@H](C(=O)NCC(=O)N[C@@H](C)C(=O)N[C@H](C(=O)N[C@@H](CCCNC(=N)N)C(=O)N[C@@H](C)C(=O)N[C@@H](CO)C(=O)N[C@@H](CCCCN)C(=O)NCC(=O)N[C@H](C(=O)N[C@@H](C)C(=O)N[C@@H](CCCCN)C(=O)NCC(=O)N[C@@H](CC(C)C)C(=O)N[C@@H](CC(C)C)C(=O)N[C@@H](CCCNC(=N)N)C(=O)N[C@H](C(=O)N[C@@H](C)C(=O)N[C@@H](C)C(=O)N[C@H](C(=O)N[C@@H](CCCNC(=N)N)C(=O)N[C@H](C(=O)NCC(=O)N[C@@H](CCCNC(=N)N)C(=O)N[C@@H](CCCNC(=N)N)C(=O)N[C@@H](C)C(=O)N[C@@H](CC(C)C)C(=O)N[C@H](C(=O)N[C@H](C(N)=O)[C@@H](C)O)[C@@H](C)O)[C@@H](C)O)[C@@H](C)CC)[C@@H](C)CC)C(C)C)[C@@H](C)CC)[C@@H](C)CC` [AMP #21] (H-MGIGKFQKMRFIGAIRASKGVAKGLLRIAAIRTGRRALTT-NH2), the “HC50 (hemolysis)” value is more than 250 µM.

Take `CC[C@H](C)[C@H](NC(=O)[C@H](CO)NC(=O)[C@H](CO)NC(=O)[C@H](CO)NC(=O)[C@H](CCCNC(=N)N)NC(=O)[C@@H](NC(=O)[C@H](CO)NC(=O)[C@@H](N)CCSC)[C@@H](C)O)C(=O)N[C@@H](CCCNC(=N)N)C(=O)N[C@@H](CCCNC(=N)N)C(=O)N[C@@H](CC(C)C)C(=O)N[C@H](C(=O)N[C@@H](CCC(=O)O)C(=O)N[C@@H](C)C(=O)N[C@H](C(=O)N[C@@H](CCCNC(=N)N)C(=O)N[C@H](C(=O)N[C@@H](CCCNC(=N)N)C(=O)N[C@@H](Cc1ccccc1)C(=O)N[C@@H](CCCNC(=N)N)C(=O)N[C@@H](C)C(=O)N[C@@H](C)C(=O)N[C@@H](CC(C)C)C(=O)N[C@@H](CCCNC(=N)N)C(=O)N[C@H](C(=O)N[C@H](C(=O)N[C@@H](CC(C)C)C(=O)N[C@@H](Cc1ccccc1)C(=O)N[C@@H](Cc1ccccc1)C(=O)N[C@@H](C)C(=O)N[C@@H](CC(C)C)C(=O)N[C@@H](CCCNC(=N)N)C(=O)N[C@H](C(=O)N[C@H](C(=O)N[C@@H](CCCCN)C(=O)N[C@@H](CCCNC(=N)N)C(=O)N[C@@H](CCCNC(=N)N)C(=O)N1CCC[C@H]1C(=O)N[C@@H](CCCNC(=N)N)C(=O)N[C@@H](CCCNC(=N)N)C(N)=O)[C@@H](C)O)[C@@H](C)O)C(C)C)[C@@H](C)O)[C@@H](C)O)C(C)C)C(C)C` [AMP #23] (H-MSTRSSSIRRLVEAVRTRFRAALRTVLFFALRTTKRRPRR-NH2): the “HC50 (hemolysis)” value was determined as 11.5 µM.

Regarding `CC[C@H](C)[C@H](NC(=O)[C@H](CCCNC(=N)N)NC(=O)[C@H](CCCNC(=N)N)NC(=O)[C@@H](NC(=O)[C@H](C)NC(=O)[C@H](CCC(=O)O)NC(=O)[C@H](CCCCN)NC(=O)[C@H](CCCNC(=N)N)NC(=O)[C@H](CO)NC(=O)[C@H](CCCNC(=N)N)NC(=O)[C@H](CC(C)C)NC(=O)[C@@H](NC(=O)[C@H](CC(N)=O)NC(=O)[C@H](CCCNC(=N)N)NC(=O)[C@@H](NC(=O)[C@H](CCCCN)NC(=O)[C@H](CCSC)NC(=O)[C@@H](N)CCSC)[C@@H](C)CC)[C@@H](C)O)C(C)C)C(=O)N[C@@H](Cc1ccccc1)C(=O)N[C@@H](CO)C(=O)N[C@@H](CC(C)C)C(=O)N[C@@H](CCCNC(=N)N)C(=O)N[C@@H](CCCNC(=N)N)C(=O)N[C@@H](CCCNC(=N)N)C(=O)N[C@@H](CO)C(=O)N[C@H](C(=O)N[C@@H](Cc1ccccc1)C(=O)N[C@H](C(=O)N[C@@H](CCC(=O)O)C(=O)N[C@@H](CCSC)C(=O)N[C@@H](C)C(=O)N[C@@H](CCCNC(=N)N)C(=O)N[C@@H](C)C(=O)N[C@@H](Cc1ccccc1)C(=O)N[C@@H](CCCNC(=N)N)C(=O)N[C@@H](CCCNC(=N)N)C(=O)N[C@@H](Cc1ccccc1)C(=O)N[C@@H](CCCCN)C(=O)N[C@@H](C)C(=O)N[C@@H](CCCNC(=N)N)C(N)=O)[C@@H](C)O)C(C)C` [AMP #28] (H-MMKIRNTLRSRKEAVRRIFSLRRRSVFTEMARAFRRFKAR-NH2), the “HC50 (hemolysis)” value is listed as more than 250 µM.

As for “H-MCFCFKAGPKICRGLQRKKKKFKYQTSFTKTGFGFLTKPKSPAR-NH2 (cysteines drawn unpaired) [AMP #10]”, the “HC50 (hemolysis)” value is more than 250 µM.

Regarding “H-MCFCRYRFFYRRRIRFFKWGPYFYVWFGFPFGRKAFFLSVFRRRFC-NH2 (cysteines drawn unpaired) [AMP #19]”, the “HC50 (hemolysis)” value is recorded as more than 250 µM.

Consider “H-MCFFPRRKSKVKVKGGLCRLLFIFFKTTFCFKAKTKKEIKKGTGKKIVR-NH2 (cysteines drawn unpaired) [AMP #18]”, for which the “HC50 (hemolysis)” value amounted to 4.7 µM.

In the case of “MAIRIIGRLARVRARVVARVRSRLLADDPPEDLLRVARRRKGRRWLFLS-NH2 [AMP #24]”, the “HC50 (hemolysis)” value is given as more than 250 µM.

As to “MEAFKKKPRLPLFKVKLTRFLERARGLGSYRIFEFFKKFGVKKFVSSLR-NH2 [AMP #15]”, the “HC50 (hemolysis)” value stood at 24.8 µM.

On to “MGWWFPPKTGNGAGKAFKKAAAAKWGGLFLKAAWFANKGEWGGGFPKGY-NH2 [AMP #9]”, for which the “HC50 (hemolysis)” value was more than 250 µM.

Turning to “MKAKKWFESLFKTFFKKGKGIYPKSSFEKEKKTDKKKKFGGWVWFKK-NH2 [AMP #16]”, the “HC50 (hemolysis)” value was determined as 180.2 µM.

Turning to “MKKKKKGILKQNNKKKKYTLFNRMVVFLFLGFIMIIFVQKYKKVIYHK-NH2 [AMP #29]”, the “HC50 (hemolysis)” value is reported as 50.6 µM.

With “MKLRRRLRTRMVALLVLGVLFLLMLFFIIFLRRMLMRRFRA-NH2 [AMP #26]”, the “HC50 (hemolysis)” value is given as more than 250 µM.

As to “MKQPSKTKTHFKYFLLFLKSVKKVAGFKKKKKKYHWRSYKEGSCFRKRT-NH2 [AMP #13]”, the “HC50 (hemolysis)” value was more than 250 µM.

With “MLFGSRAKKYGKEAKQEKSFQYPKSSFVACKKKWKRSKHFFKTFKKKVS-NH2 [AMP #1]”, the “HC50 (hemolysis)” value is listed as more than 250 µM.

In the case of “MNNRGPLGRRFKARRKWKKFVAGKMKKKRKRFKGFKKKGGFTPFVKKFV-NH2 [AMP #3]”, the “HC50 (hemolysis)” value was more than 250 µM.

As for “MNTTSNMIHRAVQQKRISFRAAKLTVLFLFKRRLLRRLLRHHEN-NH2 [AMP #27]”, the “HC50 (hemolysis)” value is recorded as 105.1 µM.

“MRNFFKKTRLKYKGKKELIKKSRAFGLKTKKRSGFFFPRALKYEEEFY-NH2 [AMP #7]”: the “HC50 (hemolysis)” value is given as more than 250 µM.

Turning to “MRRKTPVKWKTFFKALKHKKKIFKKTFEKFKFLAKGPAFLKGFDQKLKS-NH2 [AMP #5]”, the “HC50 (hemolysis)” value is reported as 82.9 µM.

Take “MWIKWKKPRKWGRRLKKKEKEELGDYIYLYCKVYRLFGFLPYFISKKTA-NH2 [AMP #17]”: the “HC50 (hemolysis)” value was more than 250 µM.

With “MYLKKFLALKNSLKKLSPFKCAVKSWLKKCAEVTFYSKLLGRRGKKDGN-NH2 (cysteines drawn unpaired) [AMP #6]”, the “HC50 (hemolysis)” value amounted to 73.8 µM.
